According to the RNAGym collection of RNA variant scans (doi:10.1073/pnas.2313332121):
Variants at the floor of the assay are shown more often than the library holds them.

B1: TPR 5TU (parent)
chain: GGAUCUUCUCGAUCUAACAAAAAAGACAAAUCUGCCACAAAGCUUGAGAGCAUCUUCGGAUGCAGAGGCGGCAGCCUUCGGUGGCGCGAUAGCGCCAACGUUCUCAACUAUGACACGCAAAACGCGUGCUCCGUUGAAUGGAGUUUAUCAUG

Variants of: B1
Assay: polymerase ribozyme fitness, log enrichment relative to wild type (log ratio); higher = more active; in vitro selection for triplet polymerase activity
Procedure, shortened: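 Fitness is a logarithmic measure of how a genotype enriched relative to the wild type, with replicate averages weighted by inverse variance. The logarithm uses base 2, and enrichment came from Illumina sequencing of input and output libraries. Those libraries were PCR-built, transcribed mutants of each subunit of a heterodimeric triplet polymerase ribozyme, passed through one triplicate in vitro selection round that included frozen incubation at −7 °C, gel excision of extended constructs and streptavidin-bead capture. Genotypes were kept only if they had ≥10 input reads and ≥1 read per output.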

| Variant | polymerase ribozyme fitness (log ratio) |
| --- | --- |
| U33A C54U G70C C85A A89U C96A A110C G143C A150C | ≤ -4.2 |
| U31C C54A C93G | ≤ -4.2 |
| U33C G42A G81A A89G A119C C132U | ≤ -4.2 |
| A30U C32G C51U G74U C76G G81C G86C | ≤ -4.2 |
| A30G C43G C87G C108U C125A C131G | ≤ -4.2 |
| A30U G81U C93A C129G | ≤ -4.2 |
| U33G C93G A120G | ≤ -4.2 |
| A30U G84C C85G A113U G141C | ≤ -4.2 |
| U33G C63U G92U C93A A113C A121U | ≤ -4.2 |
| U33C G50A | -3.85 |
| C32G A52U C99G | ≤ -4.2 |
| U31A U53A G68U C95A C149G | ≤ -4.2 |
| A30G G70A | ≤ -4.2 |
| U31G U61A C93G A121U | ≤ -4.2 |
| U31G U45A A49C G84A A113G A142C | ≤ -4.2 |
| C32A A91U C93A | ≤ -4.2 |
| U33A G48A U56G U82C G94C C116A C125G | ≤ -4.2 |
| C32U G42A G50C G59C G70A U82A G86A A138G | ≤ -4.2 |
| U31C C36G G136C U139C | ≤ -4.2 |
| C32U G58A C87A G92U C116U U139C | ≤ -4.2 |
| A30U G80C G112U | ≤ -4.2 |

| Variant | polymerase ribozyme fitness (log ratio) |
| --- | --- |
| U31A G46U A52G U55A U78G G100U | ≤ -4.2 |
| U33C G50A C51U G83A C95U G143U | ≤ -4.2 |
| A30U A49U A60C C85G C105A A120G G126A A137G | ≤ -4.2 |
| A30G U45A U78C G80C A89C G94U | ≤ -4.2 |
| U31G C54A G88A C95A A106C G136U | ≤ -4.2 |
| C32U U33A U151A | -4.18 |
| A30U G68U G94A | ≤ -4.2 |
| C32A A47U G100U U109G A115U | ≤ -4.2 |
| A30G C38G C54A G62A C87U G126A | ≤ -4.2 |
| C32G C38U C95G G140A | ≤ -4.2 |
| U31C C76A C93U G100A G141C | ≤ -4.2 |
| C32U A41U | -3.95 |
| U33G G42A U45A G50A U77C C105G | ≤ -4.2 |
| A30G C72G C93A A121U A142U | ≤ -4.2 |
| C32A U33G A66G G83A U102G C118G G124C G141C G143U | ≤ -4.2 |
| A30G C75A G84A U90G A97U U134A U151G | ≤ -4.2 |
| U31G C35G G62C U77A G83U | ≤ -4.2 |
| U31C C79U U102C A106G U134G | ≤ -4.2 |
| U31G A37U A47C G68A C96A U135A A150C | ≤ -4.2 |
| U31A U55A A147G | -0.55 |
| A30U A41G A60C C85A G141A U145A | ≤ -4.2 |

| Variant | polymerase ribozyme fitness (log ratio) |
| --- | --- |
| U33G G74A C76A G84U U144A | ≤ -4.2 |
| C32G U78C G84A G140U U144C U145A | ≤ -4.2 |
| C32G C72U C96G U134G U135G | ≤ -4.2 |
| C32U G65C U77A C87G U90C C114A U151A | ≤ -4.2 |
| U33A A41C C87A U130G A147G | ≤ -4.2 |
| U31A G81C C96G U111A G126A | ≤ -4.2 |
| U31A C57U A91U A97U G141A | ≤ -4.2 |
| U31C U53G G67C C76G G83A | -3.62 |
| A30U A37U U53A C87U | ≤ -4.2 |
| A30U U45G C75A G86A C103G C105A | ≤ -4.2 |
| C32A A41U G42A C75U C87G G92A A150C | ≤ -4.2 |
| A30U U33C U56A A73G C96G A106C A107U C118U G126C A138U | ≤ -4.2 |
| U33G C75G C96U A121G A142U | ≤ -4.2 |
| U33C C36A C85A A106U A113U | ≤ -4.2 |
| U31G A122U A142C | -1.56 |
| A30G C95U | -3.14 |
| U33G G83C | -3.6 |
| U33C G59A C99U U109G | ≤ -4.2 |
| U31G C36U A91G C93A A115G | ≤ -4.2 |
| U33A A40G U45A C69G G83C C87A G140U A142U | ≤ -4.2 |
| A30U C85U A97U G128A G140C C149U | ≤ -4.2 |

| Variant | polymerase ribozyme fitness (log ratio) |
| --- | --- |
| C32G G141A | ≤ -4.2 |
| U33G G67A G81C C87U G100U A121G | ≤ -4.2 |
| A30U U45A A49C G68A U78A A97G G117U | ≤ -4.2 |
| A30U G83C U90G | ≤ -4.2 |
| U33A G48A U78C G84A C105U | ≤ -4.2 |
| A30G C69U A91C A147C A150G | ≤ -4.2 |
| C32U U61A G74U C99G | ≤ -4.2 |
| U33G G42C G88U G124U C125G | -3.86 |
| C32G C87G G133U U144G | ≤ -4.2 |
| A30U C54G C95A A98U A122C G141C U144C | ≤ -4.2 |
| U33G A60G C85A A97U A142C | ≤ -4.2 |
| U31G U53G G70U A89U C93U C114A C123G U135C G152U | ≤ -4.2 |
| U33G G58C C95G C131U | ≤ -4.2 |
| U31G C63U C69U G70C G84U G126A U135A | ≤ -4.2 |
| C32U U56A C99G U148G | ≤ -4.2 |
| C32U U61A G88A A89C C96G A98U A107U | ≤ -4.2 |
| U31A C32G A41U G67U G80C G86C A147U | ≤ -4.2 |
| C32G G71C A91U C131A G152U | ≤ -4.2 |
| A30U U31C G65A C85A C95G C114A U148A | ≤ -4.2 |
| A30U G58C C76A G94C U104G G136A | ≤ -4.2 |
